US20240115550A1, “TREATMENT OF MENTAL DISORDERS” (GH Research Ireland Limited, priority 2022, published 2024)

System: patients with treatment-resistant major depressive disorder (TRD)
Assay: Phase 1/2 clinical trial of inhaled 5-MeO-DMT in TRD

COc1ccc2[nH]cc(CCN(C)C)c2c1 [5-MeO-DMT]
SAEs (Part A): No SAEs were reported | safety laboratory analyses, vital signs, psychiatric safety assessments, measures of cognitive function (Part A and Part B): No clinically significant changes | patients with MADRS remission (Part A, 12 mg, n=4, day seven): 50% | patients with at least one ADR (Part A, in both groups (12 mg and 18 mg), all mild, resolved spontaneously): 3 of 4 | SAEs (Part B): No SAEs were reported
